# Assay results taken from the RNAGym collection of RNA variant scans (doi:10.1093/nar/gkz1192).
# Read counts are not given, so values of variants with three or more changes are uncertain.
# B1: CPEB3 Ribozyme (parent)
# chain: UAACAGGGGGCCACAGCAGAAGCGUUCACGUCGCAGCCCCUGUCAGAUUCUGGUGAAUCUGCGAAUUCUGCUGUAUAUCUC
# Variants of: B1
# Assay: self-cleavage, relative activity (ratio to wild type); higher = more cleavage; in vitro, sequencing
# Summary of the method: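 For each CPEB3 ribozyme variant, relative activity is its cleaved/total read fraction divided by the unmutated ribozyme's. Barcoded error-prone PCR libraries were transcribed by T7 RNA polymerase (5 hours, 37°C) and held in DNase I for 15 min before an EDTA stop, with cleavage occurring throughout. Template-switching reverse transcription and Illumina sequencing were used to read the RNAs. A 5-read minimum applied, and results are the mean of three batches.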
row,Variant,self-cleavage
1,U43C U54G G73A,1.09
2,U43C A56G U58C U60C U74A,0.29
3,U43C A45U U60C U69C,0.14
4,U43A U69G U72C U74C C81A,0.55
5,U43C C50G G53A A57G,0.21
6,U43A U58C A77G,0.48
7,U43A U66C U80C,0.35
8,U43C U54A A64U,0.2
9,U43A U54C U60A U66C,0.28
10,U43A U58C U60C A64G A65U,0.23
11,U43C U60C U78C U80C,0.4
12,U43C A57C A65G,0.1
13,U43C U49C U69C A75U,0.11
14,U43C A45G A64U U78G,0.06
15,U43C A65G G70A,0.11
16,U43C G63A U72C U78C,0.77
17,U43C A65G U69C A77U,0.18
18,U43C C59U U66C G73U,0.11
19,U43C A64G U66C U80A,0.09
20,U43C A45G U58G,0.12
21,U43C C71U A77U U78C C79A,0.32

row,Variant,self-cleavage
1,U43C U48A G73A,0.35
2,U43C U54C A57G,0.18
3,U43C G52A U54C U69C,0.18
4,U43C U58A C62G,0.22
5,U43C A56C U58A U80C,0.1
6,U43C G55A U76A,0.21
7,U43C A56U U78C,0.26
8,U43C A45G U69C,0.18
9,U43C U58C U60C,0.18
10,U43A U49C U72C,0.35
11,U43C A65G U76A,0.2
12,U43C G53A U80C,0.76
13,U43C A64C U66A U69C,0.1
14,U43C U54C U58C C71U U72C,0.21
15,U43C A56U C68A,0.18
16,U43C A45G U48C U60A,0.16
17,U43C U54C A56G U78C,0.07
18,U43C A56U G61U G63A U66C U72C A77G,0.24
19,U43C U67C U80A,0.29
20,U43A U54C A56U,0.71
21,U43C A47G U48C U78C,0.06

row,Variant,self-cleavage
1,U43A U74C A77U,1.26
2,U43C U54C U60A U78C,0.37
3,U43C G53C U54C,0.37
4,U43C A75C U78C,0.59
5,U43C A45G U51A,0.51
6,U43C U48C U69A G73C U74A,0.2
7,U43C U60C A77U,0.09
8,U43C A64G U74A,1.03
9,U43A U72C A75G U80C,1.15
10,U43C A47G A57G A64C,0.14
11,U43C G52C U54G A57G,0.42
12,U43A C59U U72C U74A,1.18
13,U43A A64U U66C,0.35
14,U43C A47U U78C,0.5
15,U43C A65G U66G,0.24
16,U43A U49A G52A,0.82
17,U43C C68U U76C,0.14
18,U43A U51C U60A,0.66
19,U43A U54C U58G U60C,0.21
20,U43A A64G A75G C79A,1.01
21,U43C A45G U58C U72C,0.07

row,Variant,self-cleavage
1,U43C A56G A64G U66C U69A U72C,0
2,U43A U48C U76C,0.74
3,U43C A56U A65G,0.17
4,U43C U54A A57G,0.37
5,U43C U49G U76A,0.11
6,U43C A64G C68U U78C,0.17
7,U43C A47G U54C,0.22
8,U43C U66C U78C U80C,0.09
9,U43A G63A A75G,0.89
10,U43C U67A U72A U80C,0.19
11,U43A C50U U78C,1.14
12,U43C U49G A57G,0.15
13,U43C U51C U54A A56U U67C U72A,0.18
14,U43A A47G U49C,0.47
15,U43C U51A A56U U72A A75U,0.39
16,U43C U51G A64G A65G U76C,0.15
17,U43A U48G U67C,0.18
18,U43A A57G A75U U78C,0.94
19,U43C A45U U48C A64U,0.1
20,U43C U60C A64U U78C,0.05
